The results in this text go back to the supplement of paper PMC8183993.

Several values for one entry are separate records, joined by “and”; a condition that tells them apart may be missing. Identical values can stand only once. Counter-ions that a name gives are not always drawn. ± gives the standard deviation of the averaged measurements. Whole data set: some 3,200 compounds, median “nuclei count (viability) relative to DMSO” near 99, cut for the lowest 2% near 16. The list shows a part of the results.

The assay concerns U2OS. Kind of assay: nuclei count (viability) relative to DMSO (% of DMSO); higher = more viable cells. The settings on record: 10 µM; 24 h. The method, then: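 Primary image-based screen in U2OS cells: compounds at 10 uM for 24 h, then a 1 h o-propargyl-puromycin (OPP) pulse, click labelling, and high-throughput microscopy. Mean cytoplasmic OPP intensity and nuclei count were normalised to DMSO wells within each plate (DMSO = 100) and averaged over triplicate plates.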
With `CCSC(=N)N` [EIT hydrobromide], the nuclei count worked out at 91.5.
Turning to `CCCCC[C@H](O)/C=C/[C@@H]1[C@@H](C/C=C\CCCC(=O)O)[C@@H](O)C[C@H]1O` [Dinoprost trometamol], the nuclei count turned out to be 101.
For `COc1ccc(CN(CCN(C)C)c2ccccn2)cc1` [Pyrilamine maleate] the value was 102.
The same measure for `COc1ccc(CN(CCN(C)C)c2ccccn2)cc1` [Mepyramine maleate]: 104; for `CCCNC(C)C(=O)Nc1ccccc1C` (stereo not drawn) [Prilocaine hydrochloride]: 102.
For `CC(COc1ccccc1)N(CCCl)Cc1ccccc1` (stereo not drawn) [Phenoxybenzamine hydrochloride] the value was 106; for `Nc1ncn([C@@H]2O[C@H](CO)[C@@H](O)[C@H]2O)c(=O)n1` [Azacitidine (Vidaza)], 68.5.
`O=C(Nc1ccc(OC(F)(F)F)cc1)c1sccc1NCc1ccnc2ccccc12`: the nuclei count was found to be 74.7.
For `COc1cc(/C=C/C(=O)N2CCN(CC(=O)N3CCCC3)CC2)cc(OC)c1OC` [Cinepazide maleate] the value was 101.
For `CNC(=O)c1cc2c(cn1)[nH]c1ccccc12` the value was 101; for `Cc1cc(=O)oc2cc(O)ccc12` [Hymecromone], 95.8; for `CCOC(=O)c1ccc(OC(=O)CCCCCNC(=N)N)cc1` [Gabexate mesylate], 96.3.
The same measure for `CCOC(=O)c1ccc(OC(=O)CCCCCNC(=N)N)cc1` [Gabexate mesilate]: 106; for `CSc1nc(NC2CCCC2)c([N+](=O)[O-])c(NC2CCCC2)n1`: 101; for `CCCN[C@H]1CCc2nc(N)sc2C1` [Pramipexole]: 111.
`CC(C)(C)Cn1c(N)nc2ccc(-c3[nH]c(C(C)(C)C)nc3-c3ccc(F)cc3)nc21` displayed a nuclei count of 78.7.
For `c1ccc(C2CN3CCSC3=N2)cc1` (stereo not drawn) [Tetramisole hydrochloride] the value was 101; for `c1ccc(C2CN3CCSC3=N2)cc1` (stereo not drawn) [Tetramisole HCl], 99.7; for `C=C1c2cccc(O)c2C(=O)C2=C(O)[C@]3(O)C(=O)C(C(N)=O)=C(O)[C@@H](N(C)C)[C@@H]3[C@@H](O)[C@H]12` [Methacycline hydrochloride], 93.4.
The same measure for `Cn1c(=O)c2nc[nH]c2n(C)c1=O` [Theophylline monohydrate]: 102.
The same measure for `CNC(=O)CN(CCN(CCN(CC(=O)O)CC(=O)NC)CC(=O)O)CC(=O)O.O.[Gd]` [Gadodiamide (Omniscan)]: 101; for `Cc1scc2c1N(C(=O)CN1CCN(C)CC1)c1ccccc1NC2=O` [Telenzepine dihydrochloride]: 101 ± 1.5; for `CC(C)(C)c1[nH]cnc1/C=c1\[nH]c(=O)/c(=C/c2ccccc2)[nH]c1=O` [NPI-2358 (Plinabulin)]: 17.1.
With `CC(C)[C@H]1C(=O)N[C@@H](CCCNC(=N)N)C(=O)NCC(=O)N[C@@H](CC(=O)O)C(=O)N[C@H](Cc2ccccc2)C(=O)N1C`, the nuclei count came out at 105.
For `O=C(c1cccc(Cl)c1F)N1CCN(Cc2cccc(Nc3nccs3)n2)CC1` the value was 68.6.
The same measure for `NC(=O)CC[C@@H](N)C(=O)O` [D-glutamine]: 98.1; for `COc1cccc(NC(=O)/C=C/c2ccc(Cl)cc2)c1`: 92.9.
For `CC(C)(C)NC[C@H](O)COc1nsnc1N1CCOCC1` [(S)-Timolol maleate] the value was 94.5; for `CC(C)(C)NC[C@H](O)COc1nsnc1N1CCOCC1` [Timolol maleate salt], 96.7.
Take `O=C(Nc1cccc2c(=O)cc(-c3nnn[nH]3)oc12)c1ccc(OCCCCc2ccccc2)cc1` [Pranlukast]: the nuclei count amounted to 101 ± 4.
The same measure for `Cc1ccc(C(=O)Nc2ccc(CN3CCN(C)CC3)c(C(F)(F)F)c2)cc1C#Cc1cnc2cccnn12`: 16.3; for `NCCCC[C@H](N[C@@H](CCc1ccccc1)C(=O)O)C(=O)N1CCC[C@H]1C(=O)O` [Lisinopril]: 105 ± 12.
The same measure for `COc1ccc(NC(=O)c2ccc(-c3ccc(-c4noc(C)n4)cc3C)cc2)cc1OCCN(C)C`: 100.
The compound `COC1=C(OC)C(=O)C(CCCCCCCCCCO)=C(C)C1=O` [Idebenone] returned a nuclei count of 96.52 ± 0.73.
Turning to `O=C(Nc1c[nH]nc1-c1nc2ccc(CN3CCOCC3)cc2[nH]1)NC1CC1`, the nuclei count amounted to 38.9.
For the compound `CCOC(=O)[C@H](CCc1ccccc1)N[C@H]1CCc2ccccc2N(CC(=O)O)C1=O` [Benazepril HCl], the nuclei count worked out at 102.
Compound `CCOC(=O)[C@H](CCc1ccccc1)N[C@H]1CCc2ccccc2N(CC(=O)O)C1=O` [Benazepril hydrochloride] showed a nuclei count of 114.
Compound `CCOC(=O)OC(C)OC(=O)[C@@H]1N2C(=O)[C@@H](NC(=O)[C@H](N)c3ccccc3)[C@H]2SC1(C)C` (stereo partly drawn) [Bacampicillin hydrochloride] returned a nuclei count of 91.6.
Compound `Cc1c(C(=O)NC2CCCCC2)sc2nc3ccc(N)cc3n12` yielded a nuclei count of 99.5.
With `CC(C)C[C@H](NC(=O)[C@H](CCc1ccccc1)NC(=O)CN1CCOCC1)C(=O)N[C@@H](Cc1ccccc1)C(=O)N[C@@H](CC(C)C)C(=O)[C@@]1(C)CO1` [Carfilzomib (PR-171)], the nuclei count came out at 7.25.
For `O=S(=O)(c1ccccc1)c1cnc2c(N3CCNCC3)cccc2c1` the value was 105.
The same measure for `O=C(O[C@H]1CN2CCC1CC2)N1CCc2ccccc2[C@@H]1c1ccccc1` [Solifenacin succinate]: 112; for `NC(=O)N/N=C/c1ccc([N+](=O)[O-])o1` [Nitrofural]: 104.
For `COc1ccc(S(=O)(=O)N2c3ccc(Cl)cc3[C@](O)(c3ccccc3Cl)[C@@H]2C(=O)N2CCC[C@H]2C(N)=O)cc1OC` the value was 101; for `CN1CCCCC1CCN1c2ccccc2Sc2ccc([S+](C)[O-])cc21` (stereo not drawn) [Mesoridazine besylate], 102.
In the case of `O=c1oc(-c2ccc(C(F)(F)F)cc2)nn1Cc1cc(Cl)ccc1O`, the nuclei count is 98.4.
The same measure for `CN1CCCC(n2nc(Cc3ccc(Cl)cc3)c3ccccc3c2=O)CC1` (stereo not drawn) [Azelastine HCl]: 88.6; for `CC1=CC(=O)NS(=O)(=O)O1` [Acesulfame Potassium]: 95; for `CN(C)CCC[C@@]1(c2ccc(F)cc2)OCc2cc(C#N)ccc21` [Escitalopram]: 103.
The same measure for `CCCC(=O)Nc1ncnc2c1ncn2[C@@H]1O[C@@H]2COP(=O)(O)O[C@H]2[C@H]1OC(=O)CCC` [Dibutyryl-cAMP, sodium salt]: 109.
For `CCCC(=O)Nc1ncnc2c1ncn2[C@@H]1O[C@@H]2COP(=O)(O)O[C@H]2[C@H]1OC(=O)CCC` [Bucladesine sodium salt] the value was 96.6; for `CCN1CCN(C(=O)N[C@@H](C(=O)N[C@@H]2C(=O)N3[C@@H]2SC(C)(C)[C@@H]3C(=O)O)c2ccccc2)C(=O)C1=O` [Piperacillin sodium salt], 97.1.
On to `CO[C@@H]1[C@@H](OC(N)=O)[C@@H](O)[C@H](Oc2ccc3c(O)c(NC(=O)c4ccc(O)c(CC=C(C)C)c4)c(=O)oc3c2C)OC1(C)C` [Novobiocin sodium salt], for which the nuclei count turned out to be 101.
For `Nc1nc2c(nc(Br)n2[C@@H]2O[C@@H]3COP(=O)(O)O[C@H]3[C@H]2O)c(=O)[nH]1` [8-Bromo-cGMP, sodium salt] the value was 99.4; for `CN(NC(=O)CC(=O)NN(C)C(=S)c1ccccc1)C(=S)c1ccccc1` [Elesclomol], 81.7.
As for `Fc1ccc(-c2nc3n(c2-c2ccncc2)CCS3)cc1`, the nuclei count is 103.
For `CCC[C@H](N[C@@H](C)C(=O)N1[C@H](C(=O)O)C[C@@H]2CCCC[C@@H]21)C(=O)OCC` [Perindopril] the value was 113.
The same measure for `CCC[C@H](N[C@@H](C)C(=O)N1[C@H](C(=O)O)C[C@@H]2CCCC[C@@H]21)C(=O)OCC` [Perindopril Erbumine (Aceon)]: 106; for `Nc1ccc(C(=O)NCC(=O)O)cc1` [Aminohippuric acid]: 102.
For `COc1ccc(NS(=O)(=O)c2ccc(N)cc2)nn1` [Sulfamethoxypyridazine] the value was 112; for `CC1(C)OC(=O)NC1=O` [Dimethadione], 119.
`N[C@@H](C(=O)O)c1ccc(C(=O)O)c(C(=O)O)c1` yielded a nuclei count of 108.
In turn, `N=C(N)NCC1COC2(CCCCC2)O1` (stereo not drawn) [Guanadrel sulfate] displayed a nuclei count of 98.9.
Compound `Nc1ccc(S(=O)(=O)c2ccc(N)cc2)cc1` [Dapsone] came in with a nuclei count of 88.6.
The same measure for `O=Nc1ccc(O)c2ncccc12`: 41.2 and 50.6; for `O=C(c1ccc(C(=O)N2CCC(N3CCCC3)CC2)c(Nc2ccccc2)c1)N1CCC(N2CCCC2)CC1`: 103.
The same measure for `OC[C@H]1O[C@@H](Oc2ccc(O)cc2)[C@H](O)[C@@H](O)[C@@H]1O` [Arbutin]: 108.
The same measure for `CN(C)CCc1c[nH]c2ccc(Cn3cncn3)cc12` [Rizatriptan Benzoate (Maxalt)]: 105; for `OCCN1CCN(CCCN2c3ccccc3Sc3ccc(Cl)cc32)CC1` [Perphenazine]: 98.6; for `N[C@H]1C(O)O[C@H](CO)[C@@H](O)[C@@H]1O` (stereo partly drawn) [Glucosamine HCl]: 77.3.
Consider `COC1=CC(c2cc3ccccc3[nH]2)=N/C1=C\c1[nH]c(C)cc1C` [Obatoclax mesylate (GX15-070)], for which the nuclei count worked out at 45.5.
The same measure for `O=c1oc(Cl)c(Cl)c2ccccc12` [3,4-Dichloroisocoumarin]: 101.
The same measure for `C=C1C[C@H]2[C@@H]3C=C(C)C4=CC(=O)CC[C@]4(C)[C@H]3CC[C@]2(C)[C@@]1(OC(C)=O)C(C)=O` [Melengestrol acetate]: 102.
The same measure for `CC(C)C[C@@H](C=O)NC(=O)[C@H](CC(C)C)NC(=O)[C@H](CC(C)C)NC(=O)OCc1ccccc1`: 10.9 and 7.59.
For `CCN(CC)Cc1ccc2cc(COC(=O)Nc3ccc(C(=O)NO)cc3)ccc2c1` [ITF2357 (Givinostat)], the nuclei count was 14.7.
The same measure for `CC(=O)Oc1cccc2c1C(=O)c1c(OC(C)=O)cc(C(=O)O)cc1C2=O` [Diacerein]: 110; for `CC(C)(C#N)c1ccc(N2C(=O)OCc3cnc4ccc(-c5cnc6ccccc6c5)cc4c32)cc1`: 102; for `NC(C(=O)O)c1cc(O)cc(O)c1` (racemic): 101.
